# Assay results: PubChem BioAssay AID624417 (National Center for Advancing Translational Sciences (NCATS), 2012)
# Hit rate of the full screen: of about 410,000 compounds, about 6,400 (1.6%) were called active. Inconclusive results, whose numbers are uncertain, are shown with a selection of clear calls. Calls follow the shape of the dose curve; as a rule, active = well fitted inhibition curve with a large enough effect; inconclusive = small, poorly fitted or top-dose-only effect; inactive = no such curve, though single readings can be large or run the other way. No potency is given beside an inconclusive call; the fits are too rough.
# Molecular target: Glucagon-like peptide 1 receptor (Homo sapiens) (UniProt P43220)
# Experiment: qHTS of GLP-1 Receptor Inverse Agonists (Inhibition Mode); also: nearly all actives have a fitted effect of over 55% in size
# Settings: HEK293 GLP-1R CRE-luciferase, luminescence, 24 h, GLP-1R form is constitutively active; activity change, negative = inhibition: at 38.3 µM (top of the series) unless noted
# How it was run: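 Inverse agonism was detected as reduced cAMP-driven luciferase luminescence after 24 h compound treatment. The cells were HEK293 clones expressing constitutively active human GLP-1R with the reporter. Reporter-only and GPR119 cell lines served as counterscreen controls.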
# % is scaled to controls: 0 for no effect and ±100 for the full control effect; potency is read from the fitted curve at half-maximal effect; tags tell the direction and shape of the fitted curve.
# UniProt P43220, sequence (P43220 whole entry, looked up): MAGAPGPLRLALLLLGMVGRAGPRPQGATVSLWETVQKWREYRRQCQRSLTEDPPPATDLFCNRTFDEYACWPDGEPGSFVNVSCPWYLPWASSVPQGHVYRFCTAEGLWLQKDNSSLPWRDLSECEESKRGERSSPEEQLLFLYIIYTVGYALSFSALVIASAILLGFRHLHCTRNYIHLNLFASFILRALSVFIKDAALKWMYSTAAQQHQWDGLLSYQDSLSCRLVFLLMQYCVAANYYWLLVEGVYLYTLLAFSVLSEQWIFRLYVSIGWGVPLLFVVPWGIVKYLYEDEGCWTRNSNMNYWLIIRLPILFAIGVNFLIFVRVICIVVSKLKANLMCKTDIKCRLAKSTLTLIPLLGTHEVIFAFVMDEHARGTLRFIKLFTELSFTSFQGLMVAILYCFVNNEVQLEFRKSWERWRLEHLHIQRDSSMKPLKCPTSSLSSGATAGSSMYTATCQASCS
Compound,Potency,"activity change, negative = inhibition"
CCN1CCN(C(=S)Nc2ccc(Cl)c(Cl)c2)CC1,"inconclusive [inhibitor, partial curve, poor fit]",–
COC(=O)c1cc2sc(Cl)cc2n1CC(=O)Nc1cccc(SC)c1,"inconclusive [inhibitor, partial curve]",–
CCCc1cc(C(=O)OCC(=O)NCCc2ccccc2)sc1C,"inconclusive [inhibitor, single point]",–
COc1nc(=O)n(C2CCCO2)cc1C (stereo not given),–,inactive: 23%
O=C(CSc1nc(-c2cccc(F)c2)[nH]c1-c1ccccc1)Nc1ccc2c(c1)OCO2,"inconclusive [inhibitor, partial curve, poor fit]",–
COC(=O)COc1nsnc1N1CCOCC1,–,inactive: -9.49%
CN1CCN(C(=O)C2=C[C@H](c3ccc(C(F)(F)F)cc3)C[C@H](OCc3ccc(CO)cc3)O2)CC1,"inconclusive [inhibitor, single point]",–
CC1CCN(C(=O)COC(=O)c2cc(S(=O)(=O)N3CCOCC3)ccc2Cl)CC1,"inconclusive [inhibitor, single point]",–
CCC1=C/C(=C/c2sc3ccccc3[n+]2CC)CC(C)(C)C1,–,inactive: -28.7%
COc1ccc(Cl)cc1NC(=O)C/C(C)=N/NC(=O)CCc1ccccc1,"inconclusive [inhibitor, single point]",–
CCCC(C(=O)NC(C)(C)C)N(C(=O)c1snc(C(N)=O)c1N)c1ccc2c(c1)OCCO2 (stereo not given),"inconclusive [inhibitor, partial curve, poor fit]",–
OCCN1CCN(CCOc2ccccc2-c2ccccc2)CC1,"inconclusive [inhibitor, single point]",–
Cc1ccc2c(c1)oc(=O)n2CC(=O)c1ccccc1,"inconclusive [inhibitor, single point]",–
Cc1cccc2c(N=Nc3ccc(S(=O)(=O)Nc4ccc(Cl)cc4)cc3[N+](=O)[O-])c(O)[nH]c12,"inconclusive [inhibitor, partial curve, poor fit]",–
O=C(c1ccc2c(c1)N(Cc1ccc(F)cc1)C(=O)c1ccccc1S2(=O)=O)N1CCCCC1,–,inactive: 3.18%
SC(COCc1ccccc1)CN1CCN(Cc2ccc3c(c2)OCO3)CC1 (stereo not given),"inconclusive [inhibitor, partial curve, poor fit]",–
CC(C)Cc1cc(CN2CCC(CO)(Cc3ccccc3)CC2)[nH]n1,"inconclusive [inhibitor, single point]",–
COC(=O)C(C)N(C(=O)c1ccc(Cl)cc1)c1c(C)cccc1C (stereo not given),"inconclusive [inhibitor, single point]",–
Cc1ccc(S(=O)(=O)N2CCOCC2)cc1C(=O)N1c2ccccc2Sc2ccccc21,"inconclusive [inhibitor, single point]",–
Cc1nc2sccn2c1P(c1c(C)nc2sccn12)c1c(C)nc2sccn12,"inconclusive [inhibitor, partial curve, poor fit]",–
CC(C)(C)c1ccc(CNc2ccc([N+](=O)[O-])cn2)cc1,"inconclusive [inhibitor, partial curve, poor fit]",–
CCN(CC)S(=O)(=O)c1ccc(C(=O)NCCSc2c(-c3ccccc3)[nH]c3ccccc23)cc1,"inconclusive [inhibitor, single point]",–

Compound,Potency,"activity change, negative = inhibition"
O=C1CCCc2c1[nH]c1c(Br)cccc21,"inconclusive [inhibitor, partial curve]",–
O=C1CSC(=NC2CCCCC2)N1,–,inactive: 3.34%
CCCOc1ccc(NC(=O)c2c(-c3ccccc3)noc2C)cc1,–,inactive: -9.43%
Cc1ccc(S(=O)(=O)/N=C(\Sc2ccccc2)c2ccccc2)cc1,–,inactive: 3.02%
CCn1c(NC(=O)C2CCCCC2)nc2ccccc21,"inconclusive [inhibitor, full curve, poor fit]",–
CCc1n[nH]c(=S)n1/N=C/C(C)=C\c1ccccc1,–,inactive: 6.6%
COc1ccc(/C(O)=C/C(=O)C(=O)NNC(=O)C(O)(c2ccccc2)c2ccccc2)cc1,"inconclusive [inhibitor, partial curve, poor fit]",–
Cc1ccc(SCCC(=O)Nc2ccccc2C(=O)NC(C)C)cc1,"inconclusive [inhibitor, partial curve]",–
CCOC(=O)CCC(=O)NNC(=O)c1ccc(NC(=O)c2ccccc2)cc1,–,inactive: -3.81%
CCOC(=O)C1Nc2ccc(C(F)(F)F)cc2C2c3ccccc3CC12 (stereo not given),"inconclusive [inhibitor, full curve, poor fit]",–
Cc1ccc(C2CC(c3ccccc3)=NN2c2ccccc2)o1 (stereo not given),"inconclusive [inhibitor, partial curve, poor fit]",–
COc1ccccc1-c1cc(C(=O)Nc2cccnc2Cl)no1,–,inactive: 7.36%
N/C(=N\OC(=O)c1ccc(Br)o1)c1ccccn1,"inconclusive [inhibitor, partial curve, poor fit]",–
O=C(NC1CCCc2ccccc21)c1ccc(Br)cc1 (stereo not given),"inconclusive [inhibitor, partial curve, poor fit]",–
O=C(Nc1ccc2nc(N3CCOCC3)sc2c1)c1cc2ccccc2o1,–,inactive: 9.58%
Cc1ccc2[nH]c(CNC(=O)c3ccccc3F)cc2c1,"inconclusive [inhibitor, single point]",–
COC(OC)c1ccc(C#N)c(SCc2ccc(C)cc2)n1,"inconclusive [inhibitor, single point]",–
COCCCNC(=S)NNC(=O)Cn1nc(C)c(Br)c1C,–,inactive: 0.0094%
Cc1ccc(-c2nc(CS(=O)CC(=O)NCc3ccccc3)c(C)o2)cc1 (stereo not given),"inconclusive [inhibitor, single point]",–
Nc1n[nH]c2c1C1(CCCC1)Cc1ccccc1-2,"inconclusive [inhibitor, partial curve, poor fit]",–
OCc1cnc(SCc2ccccc2F)n1Cc1ccc(F)cc1,–,inactive: -25.8%
OCCC1CN(Cc2cnc(-c3ccc(Cl)cc3)nc2)CCN1C1CCCC1 (stereo not given),"inconclusive [inhibitor, partial curve, poor fit]",–

Compound,Potency,"activity change, negative = inhibition"
O=C(CNS(=O)(=O)c1ccc(Br)cc1)N1CCN(Cc2ccccc2)CC1,"inconclusive [inhibitor, single point]",–
Cc1cc(C)cc(NC(=O)C(Cc2ccccc2)NS(=O)(=O)c2ccc3c(c2)CCC(=O)N3)c1 (stereo not given),–,inactive: 10.1%
O=C(CCNC(=O)c1ccc(Cl)cc1)NCC(c1ccco1)N1CCCCC1 (stereo not given),"inconclusive [inhibitor, single point]",–
CCOC(=O)N1CCC(NS(=O)(=O)c2ccc(C)c(Cl)c2)CC1,"inconclusive [inhibitor, partial curve, poor fit]",–
Cc1nn(Cc2cccc(C(=O)NN)c2)c(C)c1Cl,"inconclusive [inhibitor, partial curve, poor fit]",–
CSc1ccccc1NC(=O)Cc1ccc(Br)cc1,"inconclusive [inhibitor, partial curve, poor fit]",–
O=S(=O)(c1ccc(Cl)cc1)N1CCN(C(=S)NCC2CCCO2)CC1 (stereo not given),"inconclusive [inhibitor, partial curve, poor fit]",–
CCOc1ccc(N/C(C)=C/C(=O)c2ccc3c(c2)OCCO3)cc1,"inconclusive [inhibitor, single point]",–
COc1cccc(NC(=O)CN(C)S(=O)(=O)/C=C/c2ccccc2)c1,"inconclusive [inhibitor, single point]",–
Cc1ccc2nc(-c3ccccc3)c(CN3CCSCC3)n2c1,"inconclusive [inhibitor, partial curve, poor fit]",–
CC(C)Cn1c(-c2cccc(Br)c2)nc2ccccc21,"inconclusive [inhibitor, single point]",–
COC(=O)C(CCSC)Nc1ncnc2onc(-c3ccc(F)cc3)c12 (stereo not given),–,inactive: -6.34%
Cc1ccc(S(=O)(=O)c2c(C)nn(C(C)(C)C)c2OC(=O)C(C)C)cc1,"inconclusive [inhibitor, partial curve, poor fit]",–
C/C(=N\NC(=S)Nc1ccccc1C)c1ccc(O)cc1,active: 10 µM,–
C#CCOCCOCCOCCNc1nc(N2CCN(C(=O)CCCCCCCCCCNC(=O)[C@H](CCCCN)n3cc(CCO)nn3)CC2)nc(N2CCN(C(=O)CCCCCCCCCCNC(=O)[C@H](CCCCN)n3cc(C[C@@H](C)CC)nn3)CC2)n1,"inconclusive [inhibitor, single point]",–
CCCOc1ccc(CNC(=O)C(NS(=O)(=O)c2cccs2)C(C)C)cc1 (stereo not given),–,inactive: 15%
O=C(Oc1c(-c2ccccc2)c(=O)n2c3c(cccc13)CC2)c1cccc([N+](=O)[O-])c1,"inconclusive [inhibitor, single point]",–
CCOC(=O)C1CCN(Cc2nnc(-c3cccc(Br)c3)o2)CC1,"inconclusive [inhibitor, single point]",–
COc1cc(Cl)ccc1OCc1cc(C(=O)N(C)Cc2cccc3cnccc23)no1,"inconclusive [inhibitor, partial curve, poor fit]",–
CCOc1ccc(CCN2C(=S)N([C@@H](CC(C)C)CN3CCCC3CN3C(=S)NC[C@@H]3Cc3ccc(O)cc3)C[C@@H]2Cc2ccc(O)cc2)cc1 (stereo not given in full),"inconclusive [inhibitor, partial curve, poor fit]",–
COc1ccccc1N1CCN(C(=O)C2CCCN(S(=O)(=O)c3ccc4c(c3)CCCN4C(C)=O)C2)CC1 (stereo not given),"inconclusive [inhibitor, partial curve]",–
